Assay results from US20040053999A1, “Novel compounds and methods for synthesis and therapy” (priority 1997, published 2004).
Marks after values point to notes of the source that are not given here.

System: Influenza A/NWS/33 (H1N1)
Experiment: Influenza A (H1N1) infected mice, low dose oral administration study
Settings: for Surv/total: p.o. bid x 5 days from 4 hr pre-virus; for Surv/total / % Survivors: 21 days; for % Survivors / Mean Surv. Time (days) / Mean SaO2 (%): p.o. bid x 5 days; for Mean Surv. Time (days): animals dying on or before day 21; for Mean SaO2 (%): mean of all assay times

SMILES	Surv/total (0.1 mg/kg/day)	Surv/total (1 mg/kg/day)	Surv/total (10 mg/kg/day)	% Survivors (0.1 mg/kg/day) [%]	Mean Surv. Time (days) (0.1 mg/kg/day)	% Survivors (1 mg/kg/day)	Mean Surv. Time (days) (1 mg/kg/day)	Mean SaO2 (%) (1 mg/kg/day)	% Survivors (10 mg/kg/day)	Mean Surv. Time (days) (10 mg/kg/day)	Mean SaO2 (%) (10 mg/kg/day)
CCOC(=O)C1=C[C@@H](OC(CC)CC)[C@H](NC(C)=O)[C@@H](N)C1 [compound 262]	2/8	7/8***	8/8***	25	11.1** days	88*** %	14.0** days	87.4* %	100*** %	>21.0** days	88.1** %
CC(=O)N[C@H]1[C@H]([C@H](O)[C@H](O)CO)OC(C(=O)O)=C[C@@H]1N=C(N)N [GG167, 4-guanidino-2,4-dideoxy-2,3-dehydro-N-acetylneuraminic acid]	–	–	–	0	–	25%	–	–	–	–	–
